# Source: ChEMBL document CHEMBL4888484, “Replenishing the malaria drug discovery pipeline: Screening and hit evaluation of the MMV Hit Generation Library 1 (HGL1) against asexual blood stage Plasmodium falciparum ,using a nano luciferase reporter read-out” (2022)
# In all, about 150,000 compounds went through this assay and about 540 (0.36%) showed an effect of 50% or more. This is one part of the list.
# Test system: Plasmodium falciparum
# Assay: Primary screen in NF54 nanoGlo assay, in single point, at 2uM, 72h; a lower Z score goes with more inhibition
# Format: functional, Erythrocyte
# Settings: timepoint 72 hour
SMILES,% Inhibition [%],Z score
CC[C@H](NC(=O)CCCn1cncn1)c1ncccc1C,-1,0.18
O=C1CC[C@@]2(CCCN(S(=O)(=O)C3CC3)C2)CN1Cc1ccccn1,-10,2.04
CCC(NC(=O)C1CCNCC1)C1CN(Cc2ccccc2)CCO1 (stereo not drawn),1,-0.26
Cc1cn2nc(N3CCC4(CC3)C[C@@H]4c3nc(-c4cccc(Cl)c4)no3)sc2n1,-4,0.82
N#CCCn1cc([C@@H](CC(=O)c2ccccc2)C(=O)O)c2ccccc21,-17,2.03
Cc1nc(C(NC(=O)C2CCC(C)O2)c2ccc(Cl)cc2)no1 (stereo not drawn),2,-0.33
O=C(c1cscn1)N1CC[C@H](N2CCOC2=O)C1,-1,0.22
Cc1cc(C)c(C#N)c(N[C@H]2CCS(=O)(=O)C2)n1,-19,1.85
CC(NC(=O)NC(C)(C)C)C1CCCN(C(=O)c2c[nH]c(C#N)c2)C1 (stereo not drawn),32,-3.59
COc1ccc(CNC(=O)CN2CCn3nc(-c4ccc(Cl)cc4)cc3C2=O)c(OC)c1,-8,1.12
COc1ccc(Cl)cc1NC(=O)C1=C(C)NC(=O)N[C@H]1c1cccc2ccccc12,4,-0.5
Cc1ncsc1COC(=O)c1ccnc(N(C)C)c1,40,-5.4
CC[C@H]1COCCN1C(=O)c1ccc(-n2cnnc2)nc1,14,-1.94
CN(Cc1cnc2ccccc2n1)C(=O)NCC1(CN2CCOCC2)CC1,2,-0.26
CN(CC(=O)N1CCC[C@H]1c1ccc(Cl)c(Cl)c1)Cc1cccs1,-12,1.37
CC[C@H](NC(=O)c1ccn(C)c1C)c1cccc(C)n1,1,-0.17
NC(=O)CCN1CCN([C@H](C#Cc2ccc(F)cc2)Cc2ccccc2)CC1,-3,0.44
CC(NC(=O)CC1CCCO1)c1ccncc1 (stereo not drawn),-17,2.46
Cc1ccc(-c2csc3ncnc(N4CCNC(=O)CC4)c23)cc1,-7,0.88
CCN(C(=O)NCc1nnc2n1CCC2)[C@@H](C)c1cccc(OC)c1,0,0.01
COc1ccc(-c2nc(-c3ccc4c(c3)ncn4CCC(=O)N3CCCCCC3)no2)c(OC)c1,-22,2.91

SMILES,% Inhibition [%],Z score
Cc1nc(CC(=O)N(Cc2ccccc2)CC2(O)CCCC2)cs1,-16,1.46
CCN1CCCCC1C(=O)NC(C)CS(=O)(=O)CC (stereo not drawn),-8,1.61
COc1ccccc1NC(=O)c1cc(-c2cc(C)sc2C)nc2onc(C)c12,-6,0.85
Cc1nsc(C)c1C(=O)Nc1ncc(Br)cc1CO,-19,2.11
Cc1onc(-c2ccccc2Cl)c1C(=O)NC1CCCC(OC(=O)Nc2ccccc2)C1 (stereo not drawn),-11,1.29
CC(=O)c1cc(-c2cc(O)cc(CC[C@H]3CCCCN3)c2)ccc1O,78,-7.86
Cc1c(Cl)cccc1NC(=O)[C@H]1CC(=O)N(c2ccc(OCc3ccccc3)cc2)C1,32,-4.19
COc1nn(C)cc1C(=O)Nc1cccc(N2CCCC2=O)c1,-8,1.18
CC(C)c1ccc(C(=O)N2C[C@@H]3Oc4c(F)ccc(F)c4O[C@@H]3C2)cn1,1,-0.27
CCCC(C)(CO)NCC1CC=CCC1 (stereo not drawn),-8,1.46
CCc1ccc(CCNC(=O)C[C@H](O)C2CC2)cc1,2,-0.31
CN(C(=O)c1ccc(-c2ncon2)cc1)[C@H]1CCCN(Cc2ccccc2)C1,-3,0.38
O=C(Nc1cccc2cccnc12)N1CC[S+]([O-])CC1,-20,1.81
Cc1ccn2c(=O)c(C(=O)NCC(C)C)c(O)nc2c1,1,-0.09
COc1ccc(S(=O)(=O)N2CCN(c3cc(C)nc(N4CCOCC4)n3)CC2)cc1,-5,0.93
CCC[C@]1(CO)CCCN(CC(=O)NC(C)(C)CC)C1,4,-0.58
COC[C@H](Nc1cc(C)nc(-c2ccccc2)n1)c1ccccn1,-1,0.16
COc1ccc(CNc2nnc(-c3nnc(C)o3)c3ccccc23)cc1,-10,1.71
CN1CCC[C@H](N(C)C(=O)c2ccc(NCc3nnn(C(C)(C)C)n3)cc2)C1,-3,0.43
O=C(NCc1cncc(-c2cccs2)c1)c1c(F)cccc1F,10,-1.43
CCOc1nnc(CN[C@H]2CCO[C@@H]2c2c(C)nn(C)c2C)s1,-9,1.03

SMILES,% Inhibition [%],Z score
CN1CCn2nc(C(=O)N3CCC(O)(c4ccccn4)CC3)cc2C1,-5,0.78
O=C(O)C1CC(Oc2cccc(Cl)c2)CN1 (stereo not drawn),0,0.05
CC(C)n1ccc(CN[C@](C)(C(N)=O)C(C)C)n1,-9,1.45
CC(=O)NC1CN(C(=O)N[C@@H](C)c2c(C)cccc2C)C1,-7,0.59
CC1(C)CN(Cc2cnn(-c3ccccc3)c2)CC[C@@]1(O)CN1CCOCC1,-18,1.75
Cc1ccc(C(=O)CCc2nc3ccccc3s2)cc1,1,-0.11
CCc1ncnc(O[C@H]2CCN(S(=O)(=O)c3c(F)cccc3F)C2)c1F,-5,0.8
CCC(NC(=O)c1cn(CC)nc1C1CCOCC1)C(O)C(C)C (stereo not drawn),-5,0.97
C=CCOc1cc(C(=O)N2CCCCC2)cc2occc12,32,-4.34
Cc1nc2c(sc(=S)n2Cc2ccco2)c(=O)n1CC(=O)Nc1cccc(Cl)c1,-13,1.65
COc1cccc(C2=NS(=O)(=O)N(C)C(C(=O)N3CCN(C(=O)C(C)(C)C)CC3)=C2)c1,-9,1.7
CCC[C@H](NC(=O)c1ccc(C)n1C)C(=O)N1CCc2sccc2C1,-2,0.26
Cc1ccc(CCNC(=O)c2ccc3c(c2)nc2n3CC[C@H](C)C2)cc1,-9,1.5
Cc1nccc([C@H](C)NC(=O)c2cc(=O)[nH]c3ncn(C)c23)n1,0,0.05
N#Cc1nc(C2CC2)oc1N1CCN(C(=O)Cc2ccsc2)CC1,-8,0.7
CC1CC(c2ccccc2F)N(c2nccc(C(F)(F)F)n2)C1 (stereo not drawn),-1,0.15
CCN1CCC[C@H](N2CCC(CCC(=O)OC)CC2)C1,-5,0.71
CC(C)(C)[C@@H]1CN(C(=O)CCc2cncnc2)CCO1,3,-0.35
Cc1nc(CC(=O)N[C@H]2COCC[C@@H]2OCc2ccccn2)cs1,-5,0.96
CCc1nc(N[C@@H]2COC3(CCCC3)C2)ncc1C,-8,1.56
CCOC1CC(NC(=O)Cc2c(C)noc2Cl)C12CCCC2 (stereo not drawn),1,-0.12

SMILES,% Inhibition [%],Z score
CCN(C(=O)Nc1ccc(OCC(F)(F)F)c(C)c1)C1CCCC1,9,-1.45
O=C(Nc1ccc(C(F)(F)F)c(F)c1)c1cc(C2CC2)[nH]c(=O)c1,-14,1.47
Cc1c(C(=O)N(C)C[C@H]2COCCO2)cnn1-c1ncc2c(n1)-c1ccccc1CCC2,6,-0.8
CCc1cc(C(=O)N[C@H]2CCN(C(C)C)C2=O)[nH]n1,-3,0.65
O=C(NCc1cccnc1)[C@]1(F)CCCN(Cc2ccc(Cl)cc2)C1,-4,0.72
CCCc1noc(-c2oc3cc(OC)ccc3c2C)n1,-4,0.68
COc1ccc(NC(=O)CN2C(=O)N[C@@](C)(C3CCCCC3)C2=O)c(OC)c1,-1,0.12
Cc1cc(C)c(CNC(=O)c2ccc3c(c2)OCCO3)c(=O)[nH]1,-1,0.16
Cc1ccc2c(=O)c(C(=O)N3CCOCC3)cn(CC(=O)NC3CCCCC3)c2n1,-4,0.6
O=C(Cn1cnc2ccccc2c1=O)Nc1nnc(C2CCCC2)s1,-16,1.95
CC(C)n1ccc(C(=O)NCc2cccc(-c3nnn[nH]3)c2)n1,-12,2.21
Nc1cc(N2CCN(Cc3ccc4cccc(Cl)c4n3)CC2)nc(N)n1,-9,1.17
CC(C)CCc1nc(N2CCCN(S(=O)(=O)c3ccc(Br)cc3)CC2)c2cnn(-c3cccc(Cl)c3)c2n1,5,-0.71
Cc1ccc(Cn2nc(C(=O)Nc3cc(C)ns3)ccc2=O)cc1,-1,0.14
CCn1cncc1[C@@H]1CCCCN1C(=O)Nc1cccc(OC)n1,-8,1.61
CCc1nc(C(C)N2CCOC(C(=O)OC)C2)oc1-c1ccccc1 (stereo not drawn),-4,0.53
O=C(c1ccc2c(c1)OCO2)N(C(=O)N1CCCCC1)c1ccccc1,-8,1.28
N#Cc1ccccc1-c1ccccc1C(=O)Nc1cc2c(=O)[nH]cnc2cc1F,-10,1.51
CC1CCN(CC(=O)Nc2ncc(Cc3cccc4ccccc34)s2)CC1,1,-0.09
O=C(c1ccccc1)c1conc1C(=O)c1ccc(Br)cc1,7,-1.04
CCC(CC)(CNC(=O)[C@@H]1COc2cc(F)ccc2C1)C(=O)O,-4,0.5
